PubChem BioAssay AID1347120 (National Center for Advancing Translational Sciences (NCATS), 2019)
About 930 (0.24%) of roughly 390,000 compounds were called active. This list was built around the results that the source calls inconclusive (neither active nor inactive); the mix of calls is not that of the screen. Calls follow the shape of the dose curve; as a rule, active = well fitted activation curve with a large enough effect; inconclusive = small, poorly fitted or top-dose-only effect; inactive = no such curve, though single readings can be large or run the other way. Where the call is inconclusive, the potency comes from a doubtful curve fit.

Assay: qHTS for Suppressors of FUS Proteinopathy: Primary screen using FUS-linked yeast assay; also: nearly all actives have a fitted effect of over 55% in size;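 as to growth rescue (activation): plate controls were DMSO vehicle for no effect and reference control for full effect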
Settings: S. cerevisiae FUS-expressing, OD600, 24 h; Potency: growth rescue; growth rescue (activation): at 76.6 µM (top of the series)
Outline: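 Compound concentration series was pinned onto galactose-induced FUS-expressing yeast seeded at OD 0.005. Plates sat 24hr at 30C; absorbance at 600 nm gave growth. DMSO served as background control.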
Potency is read from the fitted curve at half-maximal effect; tags tell the direction and shape of the fitted curve.

| Structure (SMILES) | Potency | growth rescue (activation) |
| --- | --- | --- |
| Cc1cccc(/C=N/n2c(COc3ccccc3)n[nH]c2=S)c1 | inactive |  |
| COCCn1c(SCC(=O)NC2CCCCC2)nnc1-c1ccco1 | inactive |  |
| Cc1ccc(NC(=O)N2CCC(N(C)CCC(C)C)CC2)cc1F | inactive |  |
| N#CC(C#N)=C1C(=O)N(CCN2CCOCC2)c2ccccc21 | inactive |  |
| CCOC(=O)N1CCN(C(=O)/C(=C/c2ccc(Cl)cc2)NC(=O)c2ccccc2)CC1 | inconclusive: 8.91 µM [activator, full curve] |  |
| CCc1ccc(CNC(=O)Cn2nc(-c3ccc(Cl)cc3)ccc2=O)cc1 | inconclusive: 50.1 µM [activator, single point] |  |
| OCCN1CCN(c2ncnc3c2ncn3[C@H]2CN(Cc3ccc4c(c3)OCO4)C[C@@H](CO)O2)CC1 | inactive |  |
| Cc1ccc(S(=O)(=O)Cn2nnnc2C(c2ccccc2)N2CCN(c3ncccn3)CC2)cc1 (stereo unspecified) | inconclusive: 39.8 µM [activator, partial curve, poor fit] |  |
| COc1cccc(NC(=O)Cn2c(=O)n(Cc3ccc(C(=O)NCc4ccc5c(c4)OCO5)cc3)c(=O)c3ccccc32)c1 | inconclusive: 22.4 µM [activator, partial curve] |  |
| O=C(Nc1ncn[nH]1)c1ccc(Cl)c(S(=O)(=O)Nc2ccc(Cl)cc2)c1 | inactive |  |
| Cc1ccc(S(=O)(=O)N2CCCc3cc(NS(=O)(=O)c4ccc(F)cc4)ccc32)cc1 | inconclusive: 35.5 µM [activator, single point] |  |
| CCCN1CCOC(CC(=O)Nc2ccc([N+](=O)[O-])cc2)C1=O (stereo unspecified) | inactive |  |
| O=C(NCC(c1ccccc1)c1ccccc1)[C@H](Cc1c[nH]c2ccccc12)NC1(C(=O)NC2CCCCC2)CCC1 | inconclusive: 12.6 µM [activator, partial curve, poor fit] |  |
| Cc1cc(C)c(NC(=O)CN2C(=O)C3(SCC(=O)N3c3ccc(F)cc3)c3ccccc32)c(C)c1 (stereo unspecified) | inconclusive: 50.1 µM [activator, single point] |  |
| COc1cc(/C=C2\SC(=S)N(NC(=O)c3ccccc3OC)C2=O)ccc1O | inactive |  |
| Cc1ccccc1C(=O)N=c1ccn(-c2nc3ccccc3nc2NS(=O)(=O)c2ccccc2)cc1 | inconclusive: 50.1 µM [activator, single point] |  |
| O=C(CCn1nnc2ccccc21)N1CCN(c2cccc(C(F)(F)F)c2)CC1 | inactive |  |
| CCC(C)C(=O)N1c2ccccc2C(=C2SC(C(=O)OC)=C(C(=O)OC)S2)C(=S)C1(C)C (stereo unspecified) |  | inconclusive: 57.3% [activator] |
| CC(C)CNC(=S)NNC(=O)c1ccco1 | inconclusive: 3.55 µM [activator, partial curve, poor fit] |  |
| CC(C)CN1C(=O)[C@]2(CC(=O)N(C)C2c2ccccc2)c2cc(-n3cc(C4=CCCCC4)nn3)ccc21 (stereo partly specified) | inconclusive: 22.4 µM [activator, single point] |  |
| CN(C)S(=O)(=O)N1CCC(Oc2ccc(C(=O)N3CCCCCCC3)cc2)CC1 | inactive |  |
| COc1ccc(-c2cccc(NS(=O)(=O)c3cc(C(F)(F)F)ccc3Cl)c2)nn1 | inactive |  |

| Structure (SMILES) | Potency | growth rescue (activation) |
| --- | --- | --- |
| C#CCN(C[C@H]1[C@H](OC(=O)NCc2ccccc2F)[C@H](OC(=O)NCc2ccccc2F)C[C@H]2C(=O)N(c3ccccc3)C(=O)[C@@H]12)S(=O)(=O)c1ccc(C)cc1 | inconclusive: 25.1 µM [activator, single point] |  |
| CC1CCCN(CCCNS(=O)(=O)c2cc3c(cc2Br)CCN3C(=O)C2CC2)C1 (stereo unspecified) | inactive |  |
| COc1ccc(C(=O)NCCc2csc(-c3ccc(Cl)cc3)n2)cc1 | inactive |  |
| CC(=O)CC1c2cc(F)ccc2C=C(c2ccsc2)N1c1ccc(C#Cc2cncn2C)cc1 (stereo unspecified) | inconclusive: 50.1 µM [activator, single point] |  |
| Cc1ccc(C)n1NC(=O)c1ccc(Cl)cc1Cl |  | inconclusive: 72.9% [activator] |
| COc1ccc(-c2nnn(CC(=O)N(Cc3ccc(F)cc3)C(C(=O)NC3CCCC3)c3ccc(F)cc3)n2)cc1 (stereo unspecified) |  | inconclusive: 91.4% [activator] |
| C=C(C)C(=O)Nc1cccc(C2=NOC3(C2)C[C@H](C(N)=O)N(C(=O)C(c2ccccc2)c2ccccc2)C3)c1 (stereo partly specified) | inconclusive: 35.5 µM [activator, single point] |  |
| CCCNC(=O)c1ccc(-c2nc3ccccc3s2)s1 | inconclusive: 3.98 µM [activator, full curve] |  |
| CCOC(=O)C1CCN(C(=O)C2CCN(S(=O)(=O)c3c(C)noc3/C=C/c3ccc(C)cc3)CC2)CC1 | inconclusive: 25.1 µM [activator, partial curve, poor fit] |  |
| O=[N+]([O-])c1ccc(S(=O)(=O)N2CCN(C3CCN(Cc4ccccc4)CC3)CC2)cc1 | inactive |  |
| CC(=O)Nc1nc(COc2ccccc2)cs1 | inactive |  |
| O=C(NCCc1c[nH]c2ccccc12)OCc1cn(-c2ccc(F)cc2)nn1 | inactive |  |
| CC(=O)c1cccc(NC(=O)/C=C/c2ccc(S(=O)(=O)N3CCOCC3)cc2)c1 | inactive |  |
| COc1ccc(N2CCN(C(c3ccccc3OC)c3nnnn3C3CCCC3)CC2)cc1 (stereo unspecified) | inconclusive: 28.2 µM [activator, single point] |  |
| CCOCCCN1C(=O)CN(C2CCCCCC2)C(=O)C1c1ccc(OCC)c(OC)c1 (stereo unspecified) | inconclusive: 35.5 µM [activator, partial curve, poor fit] |  |
| COc1ccc(N(Cc2cc3cc(OC)ccc3[nH]c2=O)S(C)(=O)=O)cc1 | inconclusive: 15.8 µM [activator, partial curve, poor fit] |  |
| CCOC(=O)c1c(NC(=O)c2ccc(S(=O)(=O)N3CCCC(C)C3)cc2)sc2c1CC(C)(C)NC2(C)C (stereo unspecified) | inconclusive: 50.1 µM [activator, single point] |  |
| CCCOc1ccc(N2C(=O)CC(N(CCc3ccc(OC)cc3)C(=O)c3cccc(F)c3)C2=O)cc1 (stereo unspecified) | inconclusive: 20 µM [activator, partial curve] |  |
| CCCn1c2ccccc2c2cnn(CC(=O)NCC3CCN(Cc4ccccc4C)CC3)c(=O)c21 | inactive |  |
| Cc1cc(C(=O)CCl)c(C)n1Cc1ccco1 | inactive |  |
| COc1cccc2[nH]c3c(N4CCC5(CC4)OCCO5)ncnc3c12 | inactive |  |
| Cc1n[nH]c(=O)c2c(NC(=O)CSc3nc4ccccc4c(=O)n3CCCOC(C)C)oc(C)c12 | inconclusive: 50.1 µM [activator, single point] |  |

| Structure (SMILES) | Potency | growth rescue (activation) |
| --- | --- | --- |
| O=c1c2ccccc2cnn1Cc1nnc(-c2cccs2)o1 | inconclusive: 31.6 µM [activator, partial curve, poor fit] |  |
| CCc1cccc(CC)c1N1C(=O)C2=C(SCCCS2)C1=O | inconclusive: 28.2 µM [activator, partial curve, poor fit] |  |
| N/C(=N\OC(=O)Cc1ccccc1[N+](=O)[O-])c1cccnc1 | inconclusive: 28.2 µM [activator, partial curve] |  |
| COc1ccccc1NC(=O)CSc1nnc(Cn2nnc(-c3ccccc3)n2)n1-c1ccccc1 | inconclusive: 50.1 µM [activator, single point] |  |
| O=C(NCc1ccc2c(c1)OCO2)C12CN(Cc3ccccc3)CC1C(c1cccc([N+](=O)[O-])c1)=NO2 (stereo unspecified) | active: 28.2 µM |  |
| Cc1cccc(-c2ccc(O)cc2CN2CCN(c3ncc(Cc4ccccc4)cn3)CC2)c1 | inconclusive: 50.1 µM [activator, single point] |  |
| COc1ccccc1NC(=O)CSc1nnc(COc2ccc(Cl)cc2)n1Cc1ccco1 | inactive |  |
| COC(=O)[C@@]12C[C@@H](CC(=O)N3CCN(C(=O)C4CC4)CC3)C(=O)N(Cc3cccc4ccccc34)C1=CCC(C)(C)C2 | inconclusive: 14.1 µM [activator, partial curve] |  |
| CC(C)(N[C@@H](Cc1c[nH]c2ccccc12)C(=O)NCCc1c[nH]c2ccccc12)C(=O)NC1CCCCC1 | inactive |  |
| CCCCCCCNC(=O)C1(CC2CC(c3cccc(Br)c3)=NO2)CCN(C(=O)c2cc(OCC)c(OCC)c(OCC)c2)CC1 (stereo unspecified) | inconclusive: 8.91 µM [activator, partial curve] |  |
| CC(=O)N1CCCc2cc(S(=O)(=O)Nc3ccc(Cl)cc3F)ccc21 | inconclusive: 31.6 µM [activator, single point] |  |
| CC1CCN(C(c2ccc(F)cc2)c2sc3nc(-c4ccco4)nn3c2O)CC1 (stereo unspecified) | inactive |  |
| COc1ccccc1CNC(=O)C(=O)NCC(c1cccnc1)N1CCN(c2ccccc2)CC1 (stereo unspecified) | inactive |  |
| CN(CC(=O)Nc1ccc(Cl)c(C(F)(F)F)c1)C(=O)c1ccc2c(c1)OCCO2 | inactive |  |
| O=C(N/N=C/C=C/c1ccco1)C(O)c1ccccc1 (stereo unspecified) | inconclusive: 31.6 µM [activator, partial curve, poor fit] |  |
| COc1cccc(CNC(=O)c2nn(C)c3c2CSc2ccccc2-3)c1 | inconclusive: 31.6 µM [activator, partial curve, poor fit] |  |
| CN(CC(=O)Nc1ccc(Cl)c(C(F)(F)F)c1)C(=O)c1ccc(N2CCOCC2)c([N+](=O)[O-])c1 | active: 31.6 µM |  |
| CCOc1cc2[nH]c(=O)n(CCCCCC(=O)NC3CCCC3)c(=O)c2cc1OCC | inconclusive: 3.98 µM [activator, full curve] |  |
| Cc1cc(C)cc(NC(=O)CN2C(=O)c3ccccc3Sc3ccc(C(=O)N4CCCC4)cc32)c1 | inconclusive: 31.6 µM [activator, single point] |  |
| S=C1NC2(CCCCCC2)N=C1c1ccccc1 | inactive |  |
| COc1ccc(CCn2c(-c3ccco3)nc3ccccc3c2=O)cc1OC | inactive |  |
| COc1ccc(C2(c3ccc(OC)cc3)NC(=O)N(CC(=O)NC3(C#N)CCCCC3)C2=O)cc1 | active: 14.1 µM |  |
